Test results published in paper PMC4336329 (PLoS ONE, 2015).
About 2,200 (0.71%) of roughly 310,000 compounds showed an effect of 50% or more. The effect is printed as a negative number. This is one part of the list.

Target: human ether-à-go-go-related gene (hERG) potassium channel (human, UniProt Q12809)
Experiment: primary screen, population patch clamp on CHO cells stably expressing hERG

human ether-à-go-go-related gene (hERG) potassium channel, sequence (Q12809 whole entry, looked up): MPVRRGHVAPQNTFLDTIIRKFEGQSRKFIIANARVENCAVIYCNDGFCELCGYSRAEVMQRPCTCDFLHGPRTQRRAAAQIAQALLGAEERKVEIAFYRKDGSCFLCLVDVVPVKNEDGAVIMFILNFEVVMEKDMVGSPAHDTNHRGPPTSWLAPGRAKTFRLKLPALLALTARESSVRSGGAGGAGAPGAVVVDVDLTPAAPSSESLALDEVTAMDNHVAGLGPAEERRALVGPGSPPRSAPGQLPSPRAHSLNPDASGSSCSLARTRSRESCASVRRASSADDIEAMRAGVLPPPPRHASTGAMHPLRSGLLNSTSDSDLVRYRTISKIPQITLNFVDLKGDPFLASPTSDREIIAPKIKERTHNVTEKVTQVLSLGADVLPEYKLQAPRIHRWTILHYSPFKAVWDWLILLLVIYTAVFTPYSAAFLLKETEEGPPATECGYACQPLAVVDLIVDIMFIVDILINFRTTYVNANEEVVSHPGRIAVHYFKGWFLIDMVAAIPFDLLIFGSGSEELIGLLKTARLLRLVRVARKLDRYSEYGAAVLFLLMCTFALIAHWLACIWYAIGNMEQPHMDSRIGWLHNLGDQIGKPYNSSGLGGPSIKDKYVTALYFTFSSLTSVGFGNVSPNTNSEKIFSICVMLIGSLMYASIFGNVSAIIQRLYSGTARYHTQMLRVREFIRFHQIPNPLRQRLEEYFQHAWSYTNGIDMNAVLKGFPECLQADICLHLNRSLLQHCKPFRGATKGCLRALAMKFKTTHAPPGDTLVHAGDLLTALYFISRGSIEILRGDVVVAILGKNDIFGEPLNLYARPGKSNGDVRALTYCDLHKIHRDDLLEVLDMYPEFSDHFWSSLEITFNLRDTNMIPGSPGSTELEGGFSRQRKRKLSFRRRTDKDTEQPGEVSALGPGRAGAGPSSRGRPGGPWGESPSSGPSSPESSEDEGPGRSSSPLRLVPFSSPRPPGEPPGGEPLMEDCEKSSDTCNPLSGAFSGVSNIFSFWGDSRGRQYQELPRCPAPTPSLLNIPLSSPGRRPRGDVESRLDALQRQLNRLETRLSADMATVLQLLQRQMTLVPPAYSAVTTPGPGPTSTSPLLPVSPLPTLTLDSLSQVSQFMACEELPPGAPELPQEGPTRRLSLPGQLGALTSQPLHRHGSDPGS

SMILES	hERG current change (%, negative = inhibition) at 1uM [%]
CC(=O)c1c(C)nn(C(=O)c2cccs2)c1C	11.8
COCCCN=CC1=C(O)CC(c2ccccc2)CC1=O (stereo not shown)	11.7
Cc1ccccc1CNC(=O)Nc1cccs1	4.47
O=C(/C=C/NCc1cccnc1)c1ccc(-c2ccccc2)cc1	13.1
Brc1ccc(CSc2ncn[nH]2)cc1	11.4
CNC(=S)N/N=C/c1cn(CCOc2ccccc2OC)c2ccccc12	5.69
COc1ccc(OC)c(C(c2nnnn2C2CCCC2)N2CCN(c3ccccc3F)CC2)c1.Cl (stereo not shown)	-1.95
CC(=O)OC1=Cc2c(ccc3ccc(=O)oc23)OC1(C)C	6.78
CCOC(=O)/C=C1\SCC(=O)N1CC(=O)NC(C)c1ccc(F)cc1 (stereo not shown)	7.87
COC(=O)C1=C(C)N(CC2CCCO2)C(=O)/C1=C\c1ccc(O)cc1 (stereo not shown)	9.92
O=C(Nc1ccc2oc(-c3cccnc3)nc2c1)c1ccco1	1.53
CCC(CO)NCc1ccc(Br)cc1.Cl (stereo not shown)	12.6
COc1ccc(C(C)=O)cc1COC(=O)c1cccnc1Cl	14.8
Cc1ccc(-n2c(C)nc3cc(Cl)ccc3c2=O)nc1	15.7
CCOc1ccc(NC(=S)Nc2cc(-c3ccccc3)[nH]n2)cc1	5.36
O=C(Cc1ccc(F)cc1)NC1CCCCCC1	14.9
CCN(CC)C1=CC2=CC(=C(C#N)C#N)CCC2CC1 (stereo not shown)	5.01
CCCCNS(=O)(=O)c1ccc2nc(SCC(=O)Nc3ccccc3)[nH]c2c1	5.78
COc1ccc(/C=C2\SC(N)=NC2=O)cc1	14.6
CCc1ccc(/C=C2\SC(N3CCOCC3)=NC2=O)cc1	-6.53
COc1ccc2c(Cl)c(C(=O)NC3CCS(=O)(=O)C3)sc2c1 (stereo not shown)	-1.99
Cn1c(SCC(=O)Nc2ccccc2F)nnc1-c1ccc(S(=O)(=O)N2CCOCC2)cc1	-6.44

SMILES	hERG current change (%, negative = inhibition) at 1uM [%]
Brc1ccc(NC2=Nc3ccccc3CC2)cc1	9.7
O=C(COC(=O)c1ccc(Sc2ccccc2)c([N+](=O)[O-])c1)NC1CCS(=O)(=O)C1 (stereo not shown)	4.79
O=C(O)c1ccc(Cn2cnc3sc4c(c3c2=O)CCCC4)cc1	13.6
Cc1cccc(NC(=O)C(C)SCc2nc3sc(C)c(C)c3c(=O)[nH]2)n1 (stereo not shown)	1.56
Cc1cc(C(=O)COC(=O)C2COc3ccccc3O2)c(C)n1CC1CCCO1 (stereo not shown)	-4.57
CCOC(=O)c1c(C)[nH]c(C(=O)CN2C(=O)NC3(CCCC3)C2=O)c1C	9.05
COc1ccc(C(=O)NCc2nnc(SCC(=O)Nc3ccccc3OC)n2C)cc1	9.14
CCOC(=O)c1cnc(N2CCOCC2)[nH]c1=O	17.9
CCNC(=O)/N=C1/NC(=O)C(C(C)C)O1 (stereo not shown)	20.5
COc1ccc(C[C@@H]2CN3C(=NC[C@@H]3Cc3ccc(O)cc3)N2C[C@H](C)NC(=O)CCC2CCCCC2)cc1	-64.6
CC(C(=O)N1CCC2(CC1)OCCO2)C1Sc2ccccc2NC1=O (stereo not shown)	0.324
Cc1occc1-c1n[nH]c(=S)n1C	7.51
Cc1ccccc1SCC(=O)N/N=C/c1ccc(F)cc1	13.4
COc1cc(/C=N/Nc2nc3ccccc3[nH]2)cc(Br)c1OCC(=O)N(C)C	0.153
CN(C)C(=O)c1nc2ccc(Cl)cn2c1CN1CCCC(OCc2ccccc2)C1 (stereo not shown)	-2.9
COc1ccc(Br)cc1/C=N/N1C(=O)CSC1=S	14.1
CCn1c(C)nc2cc(C(=O)N/N=C/c3ccccc3C)ccc21	5.3
Clc1ccccc1CSc1nnc(/C=C/c2ccccc2)o1	10.5
C=CCn1c(CNc2ccccc2)nnc1SCC(=O)N/N=C/c1ccccc1O	10
CC(C)(C)[C@H]1C=C(C(=O)NCc2ccccc2)O[C@@H](OCCCCO)C1	16.3
Cc1noc(C(C)C)c1C(=O)Nc1ccc(-c2nnc3n2CCCCC3)cc1	11.4
CN(C)/C=C/C(=O)c1ccc(Cl)s1	-32.5

SMILES	hERG current change (%, negative = inhibition) at 1uM [%]
O=C(CSc1nnc2ccccn12)c1ccc(OC(F)F)cc1OC(F)F	-36.3
O=C1CCC(=O)N1c1ccccc1-c1ccccc1	12.5
Cc1ccc(NC(=O)COC(=O)CNC(=O)c2ccc(Br)cc2)c(C)c1	2.66
OCCC1CN(Cc2ccccc2OC2CCCC2)CCN1Cc1ccsc1 (stereo not shown)	-23.7
Cc1ccc(N(Cc2cc3ccccc3[nH]c2=O)S(=O)(=O)c2ccccc2)cc1	-1.04
COC(=O)CN1C(=O)[C@H]2[C@@H](c3ccc(C)o3)N3C(=O)CN(Cc4ccccc4)C(=O)[C@@]3(C)[C@H]2C1=O	5.87
COc1cc(C(=O)NCC(c2cccs2)N2CCOCC2)c([N+](=O)[O-])cc1OC (stereo not shown)	15.5
Cc1nc(-c2ccc(NC(=O)C(C)(C)C)cc2)c(-c2ccccc2)o1	18.3
O=C(COc1cccc(NC(=O)c2ccco2)c1)c1ccccc1	-9.91
CN(Cc1ccccc1)C(=O)COC(=O)c1cc(S(=O)(=O)N(C)C)ccc1N1CCCC1	9.99
CC1CN(C(=O)N2CCCCC2)CCN1C(=O)N1CCCCC1 (stereo not shown)	12.3
Cc1ccc(N(CC(=O)Nc2cc(Cl)ccc2Oc2ccccc2)S(C)(=O)=O)c(C)c1	-0.252
NC(=O)CC(NC(=O)Cc1cccc2ccccc12)c1ccc(NC2CCCCC2)c([N+](=O)[O-])c1 (stereo not shown)	6.95
CCN(CC(=O)NC1CCS(=O)(=O)C1)S(=O)(=O)c1cc(C)ccc1C (stereo not shown)	11.1
CCC(C)(C)n1nnnc1C(c1ccc(OC)c(OC)c1)N1CCN(c2ccc(OC)cc2)CC1.Cl (stereo not shown)	1.26
COc1ccc(/C=N/NC(=O)c2nnn(-c3nonc3N)c2-c2cccc(OC)c2)cc1	19.7
CC(=O)C1=C(O)CC(C)(C)CC1=NCCc1nc2ccccc2[nH]1	2.13
C#CCOCCOCCOCCNc1nc(N2CCOCC2)nc(N2CCN(C(=O)[C@H](Cc3cc4ccccc4[nH]3)n3cc([C@@H](N)Cc4ccc(O)cc4)nn3)CC2)n1.Cl	4.76
CC1(C)NC(=O)N(CC(=O)OCC(=O)Nc2cc(S(=O)(=O)N3CCCCC3)ccc2Cl)C1=O	4.63
O=C(COc1ccc(Cl)cc1)N1CCN(c2ccc([N+](=O)[O-])c(N3CCOCC3)c2)CC1	-4.68
COc1cccc(-n2c([S-])c(C(=O)Nc3ccc(C(F)(F)F)cc3)[n+]3ccccc23)c1	14
CC(C)(C)OC(=O)N[C@@H](C(=O)OC(C)(C)C)c1ccc2ccccc2c1	13.8

SMILES	hERG current change (%, negative = inhibition) at 1uM [%]
Cc1ccc(S(=O)(=O)/N=C2/NC(=O)/C(=C/c3cccnc3)S2)cc1	4.38
CCOC(=O)C(O)(c1ccc(NC(=O)NC2CCCCC2)cc1)C(F)(F)F (stereo not shown)	10.2
Cc1ccc(C(=O)N2CCN(S(=O)(=O)c3ccc(C(C)C)cc3)CC2)s1	0.414
Cc1nn(Cc2ccc(F)cc2)c2sc(C(=O)Nc3ccccc3N3CCOCC3)cc12	13.8
CCC(c1nc2ccccc2c(=O)n1-c1nc2ccccc2s1)N1C(=O)c2ccccc2C1=O (stereo not shown)	13.3
Cc1ccc(C(=O)NCCNC(=O)CN2CCOCC2)cc1	12.5
Cc1ccsc1/C=N/NC(=S)NCc1ccccc1	11.9
CC(C)(C)c1n[nH]c(=S)n(N)c1=O	12.5
Cc1cc(S(=O)(=O)N2CCOCC2)ccc1OCC(=O)Nc1ccc(F)cc1	-3.24
CCn1c(CCn2ccnc2C)n[nH]c1=S	-2.25
COc1cc(Nc2nnc(C)s2)c(Cl)cc1Cl	10.5
COc1ccc(NC2CCCN(C(=O)CCc3cccc(Cl)c3)C2)cc1 (stereo not shown)	0.3
O=C(O)c1cccc2c1/C(=N/O)c1ccccc1-2	17.3
C[N+]1(C)C2CCC1CC(OC(=O)c1c[nH]c3ccccc13)C2.[I-] (stereo not shown)	11.3
CN(CC(=O)Nc1ccccc1C(F)(F)F)C(=O)c1ccccc1Sc1ccccc1C#N	14.3
CS(=O)(=O)c1ccc(NC(=O)c2ccccc2-n2cnnn2)cc1	11.3
CCCOc1ccc(/C=N/Nc2cccc([N+](=O)[O-])c2)c(O)c1	11.8
CC(C)c1nc(SCC(=O)NC2CCCC2)c2ccccc2n1	11
CCc1ccc(/C=C2\SC(=S)N(CCCC(=O)Nc3ccccn3)C2=O)cc1	14.3
COc1ccccc1NC=C1C(=O)OC2(CCCCC2)OC1=O	1.94
CC(C)c1ccc(NC(=O)N2CCCC2C(=O)Nc2ccc(-n3cnnn3)cc2)cc1 (stereo not shown)	-5.97
CC1=CC2=C(OC1N(C)C)c1cccc3cccc(c13)C2=O (stereo not shown)	1.64
